Sequences and labels used below:
T1: UNK ZnF1-6 (called full-length) (human, UniProt Q9C0B0 30-357)
T1 sequence: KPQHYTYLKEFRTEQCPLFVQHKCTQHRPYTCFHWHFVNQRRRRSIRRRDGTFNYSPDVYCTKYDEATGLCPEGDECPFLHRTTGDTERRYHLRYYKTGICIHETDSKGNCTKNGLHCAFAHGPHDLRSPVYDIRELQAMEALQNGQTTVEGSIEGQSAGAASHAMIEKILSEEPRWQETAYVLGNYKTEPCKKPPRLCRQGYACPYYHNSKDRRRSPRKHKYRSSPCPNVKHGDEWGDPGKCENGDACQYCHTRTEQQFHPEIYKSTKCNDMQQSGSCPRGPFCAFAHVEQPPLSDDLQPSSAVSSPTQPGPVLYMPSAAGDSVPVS

B1: chr15:63694043:63694144:-|CDS|ENSG00000103657|unk|FALSE|unique (ssRNA)
RNA: GGGAGUUCUACAGUCCGACGAUCAGGACCUAUGCUGAUAAACUGAGUCCCAAAGUAGUUCAAUCCUUGUUGGAUCUACUCUGUAGUCAGUUGAAGAAUUUAUUGUCCCAAACUGGUGUACUACAUAUGGCCUCUUUCGGAGAACAACAGAGGAUUGAGCAUCA
B2: ENSG00000169908:stop:overlap|stop_codon|ENSG00000169908|stop_codon|NA|stop_codon (ssRNA)
RNA: GGGAGUUCUACAGUCCGACGAUCGAGGCAUAUGUGGCUUUUGCUGCUCUCACCAACAGGUAAGAACCUGCAUGAAAAUGUCGUAGUCUGGCCCUGGUGUUAAUAUACCAUUGUUUUCAUCAUAAAGAAAAAGGCAAAACCAAACAACAGAGGAUUGAGCAUCA
B3: chr2:134980819:134981518:-|CDS|ENSG00000176601|control|control|control (ssRNA)
RNA: GGGAGUUCUACAGUCCGACGAUCUGCUUGCAAGAGAACACUGUGAGCAUUUUCAUGGAGUUUGUUCCUGGUGGCUCAAUCUCUAGUAUUAUAAACCGUUUUGGGCCAUUGCCUGAGAUGGUGUUCUGUAAAUAUACGAAACAACAACAGAGGAUUGAGCAUCA
B4: chrX:117909842:117909960:-|CDS|ENSG00000003096|unk|FALSE|unique (ssRNA)
RNA: GGGAGUUCUACAGUCCGACGAUCAGCACAGGGGAGUUCUUGAAACUCCCUUUUGAGCGUCUUGCCUUCGUGCUUUCCAGUAAUAGCCUUAAGCACUGUACUGAACUUGAGCUCUUUAAGGCUACCUGUCGUUGGCUUCGCCUGCAACAGAGGAUUGAGCAUCA
B5: chr1:91680342:91683857:-|three_prime_utr|ENSG00000069702|control|control|control (ssRNA)
RNA: GGGAGUUCUACAGUCCGACGAUCGUGCUGCCCACAGCAUCGGCAGCACGCAGAGCACGCCUUGCUCCAGCAGCAGCACGGCCUAGCCCAACCCAGCCCAACCCGGCCCAACCCAGCCCAGCCCAGCUCAGCUCAGCUACUGCCCAACAGAGGAUUGAGCAUCA
B6: ENSG00000107863:be:win_1301|CDS|ENSG00000107863|bound_else_gene|NA|bound_elsewhere_windowed (ssRNA)
RNA: GGGAGUUCUACAGUCCGACGAUCCUUUGCAGGGACGACGUCGAAGCACCUCUCAUGAUCGAGUGCCCCAGUCUGUCCAGAUACGGCAACGCAGUGUGUCCCAAGAAAGACUGGAAGAUUCUGUGCUAAUGAAGUAUUGUCCAACAACAGAGGAUUGAGCAUCA
B7: chr22:20819776:20819877:-|CDS|ENSG00000241973|unk|FALSE|unique (ssRNA)
RNA: GGGAGUUCUACAGUCCGACGAUCUGUAACGUUUUCACUUGAUCUUCUAGAAUACCUUUGCAAGUAUGCUAUCCCAUGCCUGAUAGGAAUCUCGCGAGCAUUUGGGCGUUACAGCAACAUGGAAGAGUCUCUCCUCUCAAAGCUCAACAGAGGAUUGAGCAUCA
B8: chr6:89938216:89938327:-|CDS|ENSG00000112182|unk|FALSE|unique (ssRNA)
RNA: GGGAGUUCUACAGUCCGACGAUCUCUUCCAAGGAACGAUUUCCAGAUGAUGAUUAAAAUGCACAAGCUAACCUCAGAACAGUUAGAGUUUAUUCAUGAUGUCCGACGGCGCAGCAAGAACCGCAUCGCGGCCCAGCGCUGCCGCAACAGAGGAUUGAGCAUCA
B9: chr20:13714314:13714426:-|3pUTR|ENSG00000089048|unk|total|mutant (ssRNA)
RNA: GGGAGUUCUACAGUCCGACGAUCUUUUUCCCGCCAUAAAGGAUGGAAGUCAAGAACUUUUUGUUGUUCCGUCAUGUUAAGUACCGUUUAUGAAAUUAACUUGUAAAUAAAAGUGUAAAAUAUUUUCAUUAUUUUGUACCGCACCAACAGAGGAUUGAGCAUCA
B10: chr7:77627539:77627665:+|CDS|ENSG00000127947|unk|FALSE|bound_elsewhere (ssRNA)
RNA: GGGAGUUCUACAGUCCGACGAUCAAUAUUUCAACAGCAAGUGCCACAGUUUCUGCUGCCACUAGUACUGAAAGCAUUUCUACUAGGAAAGUAUUGCCAAUGUCCAUUGCUAGACAUAAUAUAGCAGGAACAACACAUUCAGGUCAACAGAGGAUUGAGCAUCA
B11: chr11:75562225:75562326:+|5pUTR|ENSG00000149257|msi1|total|mutant (ssRNA)
RNA: GGGAGUUCUACAGUCCGACGAUCGCAGGAGGGGGUGGGGACUGCCAUAUACCGAUCCCGGGAGCAGGGGAGCGGGCUAAGAGCCGAAUCGUGUCGCGGCUCGAGAGCGAGAGUCACGUCCCGGCGCCCGCCCAGCCCGACCCACAACAGAGGAUUGAGCAUCA
B12: chr2:74529670:74529771:-|5pUTR|ENSG00000115307|unk|FALSE|unique (ssRNA)
RNA: GGGAGUUCUACAGUCCGACGAUCUCUCCGCCGGACGCGAGUUGUGAGACGGCCCAAGGGGCCGCGGGGUAUGCUGGGACCGCUAGCCCUUCCGGCGCGCCUCAGGACUUCGGGUCCCCUCACCCCGGGCGGAUGCCCAAAGACCAACAGAGGAUUGAGCAUCA
B13: chr17:44319658:44319728:-|3pUTR|ENSG00000013306|msi1_unk|FALSE|overlapping (ssRNA)
RNA: GGGAGUUCUACAGUCCGACGAUCUCCCUGUGUUUGCUGUAGCUGGGCAUGUCUCCAGGAACCAAGAAGCCCUCAGCCUGGUGUAGUCUCCCUGACCCUUGUUAAUUCCUUAAGUCUAAAGAUGAUGAACUUCUGCCUGGUGCCCAACAGAGGAUUGAGCAUCA
B14: chr7:73478007:73478118:-|CDS|ENSG00000009954|unk|FALSE|unique (ssRNA)
RNA: GGGAGUUCUACAGUCCGACGAUCAAAGGCACGCAGAAGAUGACACGAGCCCCACGGAAUUCUGGGGGUACACCUAGGACCUCUAGUAAACCUCAUAAACAUCUGCCUCCUGCAGCCCUACACCUCAUUGCAUACUACAAAGAACAACAGAGGAUUGAGCAUCA
B15: ENSG00000124766:be:win_1201|CDS|ENSG00000124766|bound_else_gene|NA|bound_elsewhere_windowed (ssRNA)
RNA: GGGAGUUCUACAGUCCGACGAUCUUCGAAGACGACCUGCUCGACCUGAACCCCAGCUCAAACUUUGAGAGCAUGUCCCUGGGCAGCUUCAGUUCGUCGUCGGCGCUCGACCGGGACCUGGAUUUUAACUUCGAGCCCGGCUCCCAACAGAGGAUUGAGCAUCA
B16: chr6:43013266:43013367:-|CDS|ENSG00000124733|msi1|FALSE|bound_elsewhere (ssRNA)
RNA: GGGAGUUCUACAGUCCGACGAUCAUCCCUGUCCUACCGCCUCCCUGUUCUUGCAGCCCCUGCCCGGAUGGCAACAGUAGUUCUAGGAGGAGACACCAUGGGCCCUGAGCGUAUCUUCCCCAAUCAGACUGAGGAACUGGGACACAACAGAGGAUUGAGCAUCA
B17: chr10:89774496:89774597:+|3pUTR|ENSG00000138182|msi1|total|mutant (ssRNA)
RNA: GGGAGUUCUACAGUCCGACGAUCAAGAUCUCAAGUCUUUAAUCCGAAUGUCUCACUUAUUUUGUAAACAUUUUGUGGGUACACCGUACAUGUAUAUAUUUACGGGGUAUGUGAGAUGUUUUGACACAGGCAUGCAAUGUGAAACAACAGAGGAUUGAGCAUCA
B18: chr5:138349049:138349150:+|3pUTR|ENSG00000120709|msi1|total|mutant (ssRNA)
RNA: GGGAGUUCUACAGUCCGACGAUCGAGAAGGUCUACAGUUAUCAUUAUUUUAAUUCCAUUACUUUCAGUCUGGAAAACUAAGCCCGUCAGAACUGUCAUCUUGCUUCCCAAUCUAAGAACCUGUGGCCCUGGAACACUUUUCAACAACAGAGGAUUGAGCAUCA
B19: chr11:124038068:124039001:-|CDS|ENSG00000182634|control|control|control (ssRNA)
RNA: GGGAGUUCUACAGUCCGACGAUCCAACGAGAUGGUCAUCUUUGUGAAUAUUGGGCUAGUGGCCUCGGGCUGCUUUGUCCUGAUAGUGCUGUCCUAUGUGUCCAUCGUCUGUUCCAUCCUGCGGAUCCGCACCUCAGAGGGGAGCAACAGAGGAUUGAGCAUCA
B20: chr20:35286537:35287972:-|CDS|ENSG00000125998|control|control|control (ssRNA)
RNA: GGGAGUUCUACAGUCCGACGAUCAAUCUCGGCAAGCUAGGGGCAUACCCAUGGUCCCAGUCCUCCCCUGCCCUCAACCAUAAUAGUACCAGCCCCUUAACCUUGGCAGUGGGGUCACCUCUGCUUCCUCGCUCCCGGCCCCUCCAACAGAGGAUUGAGCAUCA
B21: chr5:173316221:173316322:-|3pUTR|ENSG00000113739|msi1|total|mutant (ssRNA)
RNA: GGGAGUUCUACAGUCCGACGAUCAGUACUUUCAGUUUGGCGAGCCGUGAGGUCUCUGUCGAAACUACUCAACUCUGCCGUCCCCGCACAAAAGCAGCCACCGACAACACACAAACGAGAGGGCUUGGCUCCCUUCCAGGAAGACAACAGAGGAUUGAGCAUCA
B22: ENSG00000198589:be:win_2701|CDS|ENSG00000198589|bound_else_gene|NA|bound_elsewhere_windowed (ssRNA)
RNA: GGGAGUUCUACAGUCCGACGAUCGCAGUCAAAUAUGAGUGGGGUGGCUGGCGUGUAUGGGUAGACACUUUAUCAAUCACUCAUUCAAAGGUCACUUUUGAAAUACACAAAGAAAACCUUGCCAAUAUAUUUAGGGAACAGCAACAACAGAGGAUUGAGCAUCA

Some of the results follow.

The assay addresses T1, UNK ZnF1-6 (called full-length). Kind of assay: nsRBNS (natural sequence RNA bind-n-seq); RBNS binding buffer (assumed for nsRBNS): 25 mM Tris pH 7.5, 150 mM KCl, 3 mM MgCl2, 0.01% Triton X-100, 500 ug/ml BSA, 20 U/ml SUPERase-In, 4 C; UNK is unkempt and MSI1 is Musashi-1; names of the RNAs are library labels; protein concentration not given here; high values mean tight binding.
B1: the binding signal stood at 0.292 enrichment R.
In the case of B2 it was 0.408 enrichment R; in that of B3, 0.812 enrichment R; in that of B4, 0.41 enrichment R.
The figure for B5 is 1.06 enrichment R; for B6 it is 0.453 enrichment R; for B7 it is 0.38 enrichment R.
The figure for B8 is 0.536 enrichment R; for B9 it is 0.526 enrichment R.
Consider B10, for which the binding signal was found to be 0.403 enrichment R.
In the case of B11 it was 0.838 enrichment R.
The figure for B12 is 0.542 enrichment R; for B13 it is 1.52 enrichment R.
The figure for B14 is 0.695 enrichment R; for B15 it is 0.718 enrichment R.
On to B16, for which the binding signal turned out to be 0.841 enrichment R.
B17 came in with a binding signal of 0.313 enrichment R.
In the case of B18 it was 0.564 enrichment R; in that of B19, 0.705 enrichment R.
In the case of B20 it was 1.22 enrichment R; in that of B21, 0.934 enrichment R; in that of B22, 1.22 enrichment R.

These data come from publication PMC12136788.
